We go through five molecules from publication PMC3878200.

Where a chain is given by its changes, count along the chain named. No constants are given. Whether binding was seen depends on the method and setting. For some of these results: Binding seen in cells or lysates may run through a third protein. Some entries that bind do so weakly or less than the wild type. For some of these results: Tags and fused reporters may be left off the sequences shown.

For one assay, the target named is T1, Flag-Plzf (UniProt Q05516).
T1 sequence: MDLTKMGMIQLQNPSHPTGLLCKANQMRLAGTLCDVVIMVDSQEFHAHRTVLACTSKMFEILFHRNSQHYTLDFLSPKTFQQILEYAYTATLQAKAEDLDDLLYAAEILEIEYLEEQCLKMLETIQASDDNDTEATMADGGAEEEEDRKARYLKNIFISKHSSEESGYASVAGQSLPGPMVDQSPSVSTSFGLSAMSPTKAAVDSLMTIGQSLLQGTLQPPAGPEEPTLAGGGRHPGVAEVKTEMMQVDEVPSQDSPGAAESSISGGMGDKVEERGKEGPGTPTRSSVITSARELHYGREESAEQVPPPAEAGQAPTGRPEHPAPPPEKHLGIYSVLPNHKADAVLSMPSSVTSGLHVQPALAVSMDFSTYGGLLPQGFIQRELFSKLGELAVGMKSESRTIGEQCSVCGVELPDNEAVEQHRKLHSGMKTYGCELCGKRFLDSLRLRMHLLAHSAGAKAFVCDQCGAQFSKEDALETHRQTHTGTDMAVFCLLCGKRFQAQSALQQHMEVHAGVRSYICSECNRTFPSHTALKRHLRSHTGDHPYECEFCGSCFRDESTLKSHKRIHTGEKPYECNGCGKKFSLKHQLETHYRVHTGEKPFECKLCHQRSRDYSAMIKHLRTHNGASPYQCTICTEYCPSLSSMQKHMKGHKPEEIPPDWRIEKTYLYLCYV
Briefly: co-IP; COS-1 cells co-transfected with Flag-Plzf and EGFP-Znf179 constructs; lysate precipitated with anti-Flag antibody (mouse IgG as control), protein A-Sepharose; Western blot with anti-Znf179 or anti-EGFP and anti-Flag; lysis buffer 50 mM Tris-HCl pH 7.8, 150 mM NaCl, 15 mM EDTA, 0.5% Triton X-100, 0.5% NP-40, 0.1% deoxycholate. (In western blotting, separated proteins are transferred to a membrane and probed.)

Another assay addresses T2, Flag-Plzf (180–673) (UniProt Q05516).
T2 sequence: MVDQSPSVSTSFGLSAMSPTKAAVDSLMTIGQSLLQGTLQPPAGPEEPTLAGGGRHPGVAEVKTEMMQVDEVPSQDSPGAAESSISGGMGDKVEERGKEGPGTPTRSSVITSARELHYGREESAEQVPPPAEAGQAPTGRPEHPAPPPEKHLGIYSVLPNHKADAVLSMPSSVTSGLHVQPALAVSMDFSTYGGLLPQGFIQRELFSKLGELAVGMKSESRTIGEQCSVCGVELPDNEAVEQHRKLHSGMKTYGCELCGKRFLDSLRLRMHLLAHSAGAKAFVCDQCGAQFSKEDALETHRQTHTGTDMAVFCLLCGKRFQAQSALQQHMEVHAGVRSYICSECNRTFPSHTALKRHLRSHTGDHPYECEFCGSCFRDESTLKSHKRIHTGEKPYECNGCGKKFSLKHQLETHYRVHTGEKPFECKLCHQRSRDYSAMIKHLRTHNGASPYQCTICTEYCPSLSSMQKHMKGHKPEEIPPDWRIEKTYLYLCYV
The description is as above.

In a further assay the target is T3, Flag-Plzf (1–398) (UniProt Q05516).
T3 sequence: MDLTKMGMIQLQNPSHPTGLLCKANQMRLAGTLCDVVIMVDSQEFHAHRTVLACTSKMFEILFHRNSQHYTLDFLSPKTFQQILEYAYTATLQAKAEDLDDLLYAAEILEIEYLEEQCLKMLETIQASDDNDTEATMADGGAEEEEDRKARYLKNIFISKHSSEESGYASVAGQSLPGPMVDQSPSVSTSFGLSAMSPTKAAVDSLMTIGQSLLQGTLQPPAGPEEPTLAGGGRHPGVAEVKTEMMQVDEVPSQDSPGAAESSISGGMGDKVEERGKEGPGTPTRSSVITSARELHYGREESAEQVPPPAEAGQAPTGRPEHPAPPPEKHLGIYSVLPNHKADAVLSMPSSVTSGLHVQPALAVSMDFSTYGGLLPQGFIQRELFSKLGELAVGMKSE
The assay is described as above.

A further assay has as its target T4, Flag-Plzf (455–673) (UniProt Q05516).
T4 sequence: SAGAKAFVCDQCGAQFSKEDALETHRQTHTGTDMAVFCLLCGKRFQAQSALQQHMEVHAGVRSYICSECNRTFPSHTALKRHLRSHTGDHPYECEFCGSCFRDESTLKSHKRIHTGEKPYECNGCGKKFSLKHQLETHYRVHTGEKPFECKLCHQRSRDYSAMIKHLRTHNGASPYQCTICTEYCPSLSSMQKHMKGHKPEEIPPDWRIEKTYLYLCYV
The assay is described as above.

The next assay concerns the target T5, Flag-Plzf (398–673) (UniProt Q05516).
T5 sequence: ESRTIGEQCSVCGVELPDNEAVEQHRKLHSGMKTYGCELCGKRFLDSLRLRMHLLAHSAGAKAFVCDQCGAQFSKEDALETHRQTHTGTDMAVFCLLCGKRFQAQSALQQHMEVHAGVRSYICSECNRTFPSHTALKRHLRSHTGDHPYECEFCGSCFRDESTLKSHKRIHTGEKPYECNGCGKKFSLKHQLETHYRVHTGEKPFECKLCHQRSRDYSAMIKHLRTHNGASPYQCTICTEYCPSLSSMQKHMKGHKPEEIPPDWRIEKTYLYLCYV
The description is as above.

The target of assay [1] is T6, LexA-Znf179 (1–417) (mouse) (UniProt Q96DY5).
T6 sequence: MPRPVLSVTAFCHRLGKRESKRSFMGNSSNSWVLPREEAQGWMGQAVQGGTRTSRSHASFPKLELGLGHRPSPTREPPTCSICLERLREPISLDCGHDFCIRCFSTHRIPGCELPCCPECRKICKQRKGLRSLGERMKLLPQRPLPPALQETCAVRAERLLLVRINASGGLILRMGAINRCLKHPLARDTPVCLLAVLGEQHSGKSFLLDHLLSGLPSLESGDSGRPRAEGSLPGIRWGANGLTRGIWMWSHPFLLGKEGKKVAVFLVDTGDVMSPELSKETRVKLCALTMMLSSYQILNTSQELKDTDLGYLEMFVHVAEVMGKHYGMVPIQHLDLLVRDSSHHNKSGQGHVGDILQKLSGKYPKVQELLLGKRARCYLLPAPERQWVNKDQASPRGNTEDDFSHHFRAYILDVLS
The assay can be described thus: two-hybrid; LexA-based screen in yeast L40: LexA-Znf179 (1–417) bait against a mouse brain cDNA library (Gal4 AD); selection without His, Leu, Trp, then β-galactosidase colony lift filter assay.

For assay [2], the target named is T6, LexA-Znf179 (1–417) (mouse). The assay can be described thus: two-hybrid; retest in yeast L40 of bait and prey plasmids; quantitative liquid β-galactosidase assay (o-nitrophenylgalactoside) and X-gal; LexA-lamin and Gal-AD alone as controls.

B1: EGFP-Znf179 (1–153) (domain or fragment, UniProt Q96DY5 1-153)
chain: MPRPVLSVTAFCHRLGKRESKRSFMGNSSNSWVLPREEAQGWMGQAVQGGTRTSRSHASFPKLELGLGHRPSPTREPPTCSICLERLREPISLDCGHDFCIRCFSTHRIPGCELPCCPECRKICKQRKGLRSLGERMKLLPQRPLPPALQETC
As for B1, the binding result with Flag-Plzf was “no binding”.

B2: EGFP-Znf179 (protein, UniProt Q96DY5 1-654)
chain: MPRPVLSVTAFCHRLGKRESKRSFMGNSSNSWVLPREEAQGWMGQAVQGGTRTSRSHASFPKLELGLGHRPSPTREPPTCSICLERLREPISLDCGHDFCIRCFSTHRIPGCELPCCPECRKICKQRKGLRSLGERMKLLPQRPLPPALQETCAVRAERLLLVRINASGGLILRMGAINRCLKHPLARDTPVCLLAVLGEQHSGKSFLLDHLLSGLPSLESGDSGRPRAEGSLPGIRWGANGLTRGIWMWSHPFLLGKEGKKVAVFLVDTGDVMSPELSKETRVKLCALTMMLSSYQILNTSQELKDTDLGYLEMFVHVAEVMGKHYGMVPIQHLDLLVRDSSHHNKSGQGHVGDILQKLSGKYPKVQELLLGKRARCYLLPAPERQWVNKDQASPRGNTEDDFSHHFRAYILDVLSTAPQHAKSRCQGYWSEGRAVARGDRRLLTGQQLAQEIKNLSGWMGKTGPSFNSPDEMAAQLHDLRKVEAAKKEFEEYVRQQDIATKRIFSALRVLPDTMRNLLSTQKDAILARHGVALLCKEREQTLEALEAELQAEAKAFMDSYTMRFCGHLAAVGGAVGAGLMGLAGGVVGAGMAAAALAAEAGMVAAGAAVGATGAAVVGGGVGAGLAATVGCMEKEEDERVQGGDREPLLQEE
For B2, the binding result with Flag-Plzf (180–673) is reported as “binds”; in the assay with Flag-Plzf (1–398), “no binding”; in the assay with Flag-Plzf (455–673) it was “no binding”; with Flag-Plzf, “binds”; in the assay with Flag-Plzf (398–673), “binds”.

B3: Gal4-Plzf (180–673) (domain or fragment, UniProt Q3UQ17 180-673)
chain: MVDQSPSVSTSFGLSAMSPTKAAVDSLMSIGQSLLQGTLQPPAGPEEPTLAGGGRHPGVAEVKMEMMQVDEAPGQDSPGAAESSISGGMGDKLEERSKEGPGTPTRGSVITSARELHYGREESGEQLSPPVEAGQGPPGRQEPLAPPVEKHLGIYSVLPNHKADAVLSMPSSVTSGLHVQPALAVSMDFSTYGGLLPQGFIQRELFSKLGELAVGMKAESRPLGEQCSVCGVELPDNEAVEQHRKLHSGMKTYGCELCGKRFLDSLRLRMHLLAHSAGAKAFVCDQCGAQFSKEDALETHRQTHTGTDMAVFCLLCGKRFQAQSALQQHMEVHAGVRSYICSECNRTFPSHTALKRHLRSHTGDHPYECEFCGSCFRDESTLKSHKRIHTGEKPYECNGCGKKFSLKHQLETHYRVHTGEKPFECKLCHQRSRDYSAMIKHLRTHNGASPYQCTICTEYCPSLSSMQKHMKGHKPEEIPPDWRIEKTYLYLCYV
For B3, the binding result in assay [1] and in assay [2] was “binds” in each case.

B4: EGFP-Znf179 (154–654) (domain or fragment, UniProt Q96DY5 154-654)
chain: AVRAERLLLVRINASGGLILRMGAINRCLKHPLARDTPVCLLAVLGEQHSGKSFLLDHLLSGLPSLESGDSGRPRAEGSLPGIRWGANGLTRGIWMWSHPFLLGKEGKKVAVFLVDTGDVMSPELSKETRVKLCALTMMLSSYQILNTSQELKDTDLGYLEMFVHVAEVMGKHYGMVPIQHLDLLVRDSSHHNKSGQGHVGDILQKLSGKYPKVQELLLGKRARCYLLPAPERQWVNKDQASPRGNTEDDFSHHFRAYILDVLSTAPQHAKSRCQGYWSEGRAVARGDRRLLTGQQLAQEIKNLSGWMGKTGPSFNSPDEMAAQLHDLRKVEAAKKEFEEYVRQQDIATKRIFSALRVLPDTMRNLLSTQKDAILARHGVALLCKEREQTLEALEAELQAEAKAFMDSYTMRFCGHLAAVGGAVGAGLMGLAGGVVGAGMAAAALAAEAGMVAAGAAVGATGAAVVGGGVGAGLAATVGCMEKEEDERVQGGDREPLLQEE
Turning to B4, the binding result with Flag-Plzf is recorded as “binds”.

B5: Gal-AD-Plzf (398–673) (domain or fragment, UniProt Q3UQ17 398-673)
chain: T5 sequence with T4P, I5L
B5: the binding result in assay [1] is reported as “binds”.
